From patent US20050256034A1, “Dioxolane analogs for improved inter-cellular delivery” (priority 2000, published 2005)
“And” between values parts separate entries of the source, which are not always exact repeats. Equal entries are not always repeated. At least one read-out could not be matched to a standard name with certainty.

assay: 3H-Thymidine Incorporation Assay (24 hr drug, wash, another 48 hr; 72 hr assay); assay type: cell-based; settings: ratio of IC50 CEM/dCK- to IC50 CCRF-CEM

Q: With `Nc1ccn([C@@H]2CO[C@H](COC(=O)C34CCC[C@@H]5C[C@@H]3C[C@H]5C4)O2)c(=O)n1` [Compound 232, HEXAHYDRO-2,5-METHANO-PENTA- LENE-3A-CARBOXYLIC ACID 4-(4-AMINO-2-OXO-2H-PYRIMI- DIN-1-YL)-[1,3]DI- OXOLAN-2-YL METHYL ESTER] as the compound, how does the “Resistance Factor = Ratio of dCK- on Wild-type CCRF-CEM” value read?
A: 1 568 and 2 368

Q: Which “Resistance Factor = Ratio of dCK- on Wild-type CCRF-CEM” value does the source give for `CC(=O)Oc1ccc(COC(=O)Nc2ccn([C@@H]3CO[C@H](CO)O3)c(=O)n2)cc1` [Compound 203, ACETIC ACID 4-[1-(2-HYDROXY- METHYL-[1,3]DI- OXOLAN-4-YL)-2-OX- O-1,2-DIHYDRO-PYRI- MIDIN-4-YLCARBAMOYL- OXYMETHYL]-PHENYL ESTER] here?
A: >13 000 and 26 060

Q: With `Nc1ccn([C@@H]2CO[C@H](COC(=O)c3ccc(C(F)(F)F)cc3)O2)c(=O)n1` [Compound 189, 4-TRIFLUOROMETHYL-BENZOIC ACID 4-(4-A- MINO-2-OXO-2H-PYRI- MIDIN-1-YL)-[1,3]DI- OXOLAN-2-YL METHYL ESTER] as the compound, how does the “Resistance Factor = Ratio of dCK- on Wild-type CCRF-CEM” value read?
A: 1 300

same assay, conditions: ratio of IC50 CEM/dCK- to IC50 CCRF-CEM, 24 h exposure

Q: Which “Factor (Resistance Factor = Ratio of dCK- on Wild-type CCRF-CEM)” value does the source give for `CC(CCCCN(Cc1ccccc1)C(=O)OC(C)(C)C)C(=O)OC[C@H]1OC[C@@H](n2ccc(/N=C/N(C)C)nc2=O)O1` (stereo partly shown) [Compound 149, 6-(Benzyl-tert-butoxy-carbonyl-amino)-2-meth-yl-hexanoic acid 4-[4-(dimethylamino-methylene-amino)-2-oxo-2H-pyri-midin-1-yl]-[1,3]di-oxolan-2-ylmethyl ester] here?
A: >19 000 and >15 000

Q: For `CCCCOC(C)OC[C@H]1OC[C@@H](n2ccc(N)nc2=O)O1` (stereo partly shown) [Compound 97, 4-AMINO-1-[2-(1-BUTOXY-ETH- OXYMETHYL)-[1,3]DI- OXOLAN-4-YL]-1H-PYRI- MIDIN-2-ONE], which “Factor (Resistance Factor = Ratio of dCK- on Wild-type CCRF-CEM)” value is on record?
A: >11 and >19

Q: With `Cc1cccc(C)c1C(=O)OC[C@H]1OC[C@@H](n2ccc(N)nc2=O)O1.Cl` [Compound 162, 1-[2-(2,6-DIMETHYL-BENZOYL- OXYMETHYL)-[1,3]DI- OXOLAN-4-YL]-2-OX- O-1,2-DIHYDRO-PYRI- MIDIN-4-YL-AMMONIUM; CHLORIDE] as the compound, how does the “Factor (Resistance Factor = Ratio of dCK- on Wild-type CCRF-CEM)” value read?
A: >44 and >36 and >30 and >24

Q: Which “Factor (Resistance Factor = Ratio of dCK- on Wild-type CCRF-CEM)” value does the source give for `CC(C)CCCCC(=O)Nc1ccn([C@@H]2CO[C@H](CO)O2)c(=O)n1` [Compound 277, 6-METHYL-HEPTANOIC ACID [1-(2-HYDROXYMETHYL-[1,3]DI- OXOLAN-4-YL)-2-OXO-1,2-DI- HYDRO-PYRIMI- DIN-4-YL]-AMIDE] here?
A: 2 040 and >1 000

Q: With `CC(C)c1ccc(NC(=O)OC[C@H]2OC[C@@H](n3ccc(N)nc3=O)O2)cc1` [Compound 127, (4-ISOPROPYL-PHENYL)-CARBAMIC ACID 4-(4-A- MINO-2-OXO-2H-PYRI- MIDIN-1-YL)-[1,3]DI- OXOLAN-2-YLMETHYL ESTER] as the compound, how does the “Factor (Resistance Factor = Ratio of dCK- on Wild-type CCRF-CEM)” value read?
A: >7 and >4.5

Q: For `CC(C)(C(=O)Nc1ccn([C@@H]2CO[C@H](CO)O2)c(=O)n1)c1ccccc1[N+](=O)[O-]` [Compound 60, (2S,4S)--2-HYDROXY- METHYL-4-N-[2″-(2′′′-NITRO- PHENYL)-2″-METHYL- PROPIONYL]-CYTO- SINE-1′-YL-1,3-DI- OXOLANE], which “Factor (Resistance Factor = Ratio of dCK- on Wild-type CCRF-CEM)” value is on record?
A: 10 and 6

Q: With `Nc1ccn([C@@H]2CO[C@H](COC(=O)Oc3ccccc3)O2)c(=O)n1` [Compound 42, CARBONIC ACID 4-(4-A- MINO-2-OXO-2H-PYRI- MIDIN-1-YL)-[1,3]DI- OXOLAN-2-YL- METHYL ESTER PHENYL ESTER] as the compound, how does the “Factor (Resistance Factor = Ratio of dCK- on Wild-type CCRF-CEM)” value read?
A: 37 272 and 43 378

Q: With `CCOC(OCC)OC[C@H]1OC[C@@H](n2ccc(N)nc2=O)O1` [Compound 39, 4-AMINO-1-(2-DI- ETHOXYMETHOXYMETHYL-[1,3]DI- OXOLAN-4-YL)-1H-PYRI- MIDIN-2-ONE] as the compound, how does the “Factor (Resistance Factor = Ratio of dCK- on Wild-type CCRF-CEM)” value read?
A: 2 128 and 1 667

Q: With `Nc1ccn([C@@H]2CO[C@H](COCc3ccccc3)O2)c(=O)n1` [Compound 98, (2S,4S)4-AMINO-1-(2-BENZYL- OXYMETHYL-[1,3]DI- OXOLAN-4-YL)-1H-PYRI- MIDIN-2-ONE] as the compound, how does the “Factor (Resistance Factor = Ratio of dCK- on Wild-type CCRF-CEM)” value read?
A: >3 and >4

Q: With `CCCCC(C)C(=O)Nc1ccn([C@@H]2CO[C@H](CO)O2)c(=O)n1` (stereo in doubt) [Compound 96, 2-METHYL-HEXANOIC ACID [1-(2-HYDROXYMETHYL-[1,3]DI- OXOLAN-4-YL)-2-OX- O-1,2-DIHYDRO-PYRI- MIDIN-4-YL]-AMIDE] as the compound, how does the “Factor (Resistance Factor = Ratio of dCK- on Wild-type CCRF-CEM)” value read?
A: >56 and >52
